Our source for the relative growth values is the supplement of paper PMC9446081.

Molecules are shown by their SMILES. Out of some 39,000 compounds screened, about 220 (0.56%) showed activity. This is one part of the list.
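Also: static incubation at 37 °C against the wild-type strain, values averaged over two biological replicates.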

In this assay the test system is Escherichia coli K-12 BW25113. Briefly: relative growth (OD600 normalised to plate interquartile mean) (fraction); higher = less growth inhibition, active = 0.2 or less. To be noted: 50 µM; LB; incubation time: overnight (16-24 h).
As to `C[C@@H]1CN([C@@H](C)CO)C(=O)c2cc(NC(=O)CCCN(C)C)ccc2O[C@H]1CN(C)C(=O)Nc1ccc(F)cc1`, the relative growth is inactive: 1.

Consider `CCCNC(=O)N1[C@@H]2Cn3c(cccc3=O)[C@H]1[C@@H](C(=O)NCC(F)(F)F)[C@@H]2CO`, for which the relative growth was inactive: 1.

With `COc1ccc(S(=O)(=O)N(C)C[C@@H]2Oc3ncc(-c4ccncc4)cc3C(=O)N([C@@H](C)CO)C[C@H]2C)cc1`, the relative growth is inactive: 1.01.

In the case of `CC(=O)N1CCCN(S(=O)(=O)N2CCOCC2)CC1`, the relative growth is inactive: 1.02.

`N[C@@H](C(=O)O)c1cc(O)cc(O)c1`: the relative growth was inactive: 1.02.

For `O=C(C[C@H]1CC[C@@H]2[C@H](COC[C@@H](O)CN2C(=O)c2ccncc2)O1)NC1CCC1`, the relative growth is inactive: 1.02.

Take `O=C1CNc2cc(C(=O)O)ccc2N1`: the relative growth is inactive: 0.999.

`COc1ccc(S(=O)(=O)Nc2ccc3c(c2)C(=O)N([C@@H](C)CO)C[C@@H](C)[C@H](CN(C)C(=O)Nc2c(C)noc2C)OCCCC[C@H](C)O3)cc1`: the relative growth was inactive: 1.

With `CN(C)/C=C/C(=S)c1cccs1`, the relative growth is inactive: 1.04.

On to `C[C@@H]1CCCCO[C@@H](CN(C)C(=O)c2ccncc2)[C@H](C)CN([C@H](C)CO)C(=O)c2cc(NS(=O)(=O)c3cn(C)cn3)ccc2O1`, for which the relative growth was inactive: 0.99.

Consider `COc1ccc(S(=O)(=O)N(C)C[C@H]2Oc3ccc(NS(=O)(=O)c4ccccc4)cc3CC(=O)N([C@H](C)CO)C[C@@H]2C)cc1`, for which the relative growth is inactive: 1.01.

With `Cc1noc(C)c1S(=O)(=O)Nc1ccc2c(c1)C(=O)N([C@@H](C)CO)C[C@@H](C)[C@@H](CN(C)CC1CC1)O2`, the relative growth was inactive: 0.978.

For the compound `COc1ccc(NC(=O)N(C)C[C@H]2Oc3ncc(C#C[C@@H](C)O)cc3C(=O)N([C@@H](C)CO)C[C@H]2C)cc1`, the relative growth is inactive: 0.993.

Turning to `C[C@@H]1CN([C@H](C)CO)C(=O)c2cccc(NC(=O)Nc3cccc4ccccc34)c2O[C@@H]1CN(C)Cc1ccccc1`, the relative growth is inactive: 0.991.

Regarding `O=C(C[C@@H]1CC=CCCC(=O)OC[C@@H](Cc2c[nH]c3ccccc23)NC1=O)N[C@@H](CO)Cc1ccccc1`, the relative growth was inactive: 1.01.

Take `Cc1noc(C)c1S(=O)(=O)Nc1ccc2c(c1)CC(=O)N([C@@H](C)CO)C[C@H](C)[C@H](CN(C)CC1CC1)O2`: the relative growth is inactive: 0.991.

Regarding `C[C@H]1CN([C@@H](C)CO)C(=O)Cc2cc(NS(=O)(=O)c3cccs3)ccc2O[C@H]1CN(C)C(=O)Nc1cccc2ccccc12`, the relative growth is inactive: 1.

With `CO[C@@H]1CN(C)C(=O)c2ccc(NC(=O)Nc3ccc(Cl)cc3)cc2OC[C@H](C)N(C(=O)Nc2c(C)noc2C)C[C@@H]1C`, the relative growth was inactive: 0.949.

On to `C[C@@H]1CCCCO[C@@H](CN(C)CC2CCCCC2)[C@@H](C)CN([C@@H](C)CO)C(=O)c2cc(NS(=O)(=O)c3ccc(Cl)cc3)ccc2O1`, for which the relative growth was inactive: 0.986.

For the compound `C[C@H]1CN([C@@H](C)CO)C(=O)c2cccc(NS(=O)(=O)c3ccc(F)cc3)c2O[C@@H]1CN(C)Cc1ccncc1`, the relative growth was inactive: 1.03.

`CCS(=O)(=O)Nc1ccc2c(c1)C(=O)N(C)C[C@@H](OC)[C@H](C)CN(Cc1nccs1)[C@@H](C)CO2`: the relative growth is inactive: 0.987.

With `C[C@@H]1C[C@H](O)/C=C/[C@H](O)[C@@H](O)CC(=O)O1`, the relative growth is inactive: 0.987.

Turning to `O=C(CCCCCNC(=O)OCCCCO[C@H]1C[C@@H](c2ccc3c(c2)OCO3)C=C(C(=O)N2CCOCC2)O1)NO`, the relative growth was inactive: 0.95.

Consider `C[C@@H]1CN([C@H](C)CO)C(=O)Cc2cc(NC(=O)Nc3cccc4ccccc34)ccc2O[C@H]1CN(C)C(=O)Nc1ccc(C(F)(F)F)cc1`, for which the relative growth is inactive: 1.

Consider `COc1ccc(S(=O)(=O)Nc2ccc3c(c2)C(=O)N([C@H](C)CO)C[C@H](C)[C@@H](CN(C)S(=O)(=O)c2cn(C)cn2)OCCCC[C@H](C)O3)cc1`, for which the relative growth was inactive: 1.01.

In the case of `C[C@H]1CN([C@@H](C)CO)C(=O)c2c(c3ccccc3n2C)-c2ccccc2CO[C@@H]1CN(C)Cc1cccc2c1OCCCO2`, the relative growth was inactive: 1.03.

As to `C[C@H]1CN([C@@H](C)CO)S(=O)(=O)c2ccc(C#Cc3cccc(F)c3)cc2O[C@H]1CN(C)C(=O)CN1CCOCC1`, the relative growth is inactive: 1.01.

Consider `COc1ccc(CN(C)C[C@H]2Oc3c(NS(=O)(=O)c4c(C)noc4C)cccc3C(=O)N([C@H](C)CO)C[C@H]2C)cc1`, for which the relative growth is inactive: 0.837.

Take `Cc1ccc(S(=O)(=O)N(C)C[C@@H]2OCCCC[C@@H](C)Oc3ccc(NC(=O)c4ccccc4)cc3C(=O)N([C@H](C)CO)C[C@@H]2C)cc1`: the relative growth was inactive: 1.06.

Turning to `C[C@@H]1CN([C@@H](C)CO)C(=O)Cc2cc(NC(=O)Cc3cn(C)c4ccccc34)ccc2O[C@@H]1CN(C)Cc1ccc(C(F)(F)F)cc1`, the relative growth is inactive: 1.03.

`COc1cccc(S(=O)(=O)N[C@H]2C=C[C@H](CC(=O)NC3CCC3)O[C@@H]2CO)c1`: the relative growth was inactive: 0.98.

For the compound `CN1C(C)(C)CCCC1(C)C.O=C(O)C(O)C(O)C(=O)O`, the relative growth was inactive: 0.993.

As for `COCC(=O)N1C[C@@H]2OCCN(c3ccc(C)nn3)[C@H]2C1`, the relative growth was inactive: 0.994.

In the case of `COc1ccc(S(=O)(=O)N(C)C[C@H]2Oc3ccc(NS(=O)(=O)c4cn(C)cn4)cc3C(=O)N([C@@H](C)CO)C[C@H]2C)cc1`, the relative growth was inactive: 1.06.

In the case of `NCC[C@@H]1CC[C@H](NC(=O)c2ccccc2F)[C@@H](CO)O1`, the relative growth is inactive: 1.01.

Consider `CSC(=N)NCCC[C@@H](N)C(=O)O`, for which the relative growth is inactive: 0.977.

Turning to `C[C@@H]1CN([C@@H](C)CO)C(=O)c2cccc(NC(=O)c3cnccn3)c2O[C@H]1CN(C)Cc1ccccc1`, the relative growth is inactive: 1.01.

Consider `COCC(=O)N(C)C[C@@H]1Oc2cc(-c3ccc(OC)cc3)ccc2S(=O)(=O)N([C@@H](C)CO)C[C@@H]1C`, for which the relative growth is inactive: 0.997.

Regarding `COc1ccc(S(=O)(=O)N(C)C[C@H]2OCCCC[C@@H](C)Oc3ccc(NC(=O)c4ccccc4)cc3C(=O)N([C@H](C)CO)C[C@@H]2C)cc1`, the relative growth is inactive: 1.08.

Take `Oc1ccc(Cl)c2c1CCC2`: the relative growth was inactive: 0.835.

In the case of `Cc1cc(C(=O)Nc2cccc3c2O[C@@H](CN(C)Cc2ccccc2)[C@H](C)CN([C@H](C)CO)C3=O)n(C)n1`, the relative growth was inactive: 1.01.

As for `COc1ccc(S(=O)(=O)N[C@H]2CC[C@H](CC(=O)N3CCN(c4ccccc4)CC3)O[C@H]2CO)cc1`, the relative growth was inactive: 1.01.

For the compound `C[C@@H]1CCCCO[C@@H](CN(C)C(=O)Nc2ccc(C(F)(F)F)cc2)[C@H](C)CN([C@@H](C)CO)C(=O)c2cc(NC(=O)Nc3ccc4c(c3)OCO4)ccc2O1`, the relative growth was inactive: 1.04.

In the case of `C[C@@H]1CN([C@@H](C)CO)C(=O)c2cc(C#CC3CCCC3)cnc2O[C@H]1CN(C)S(=O)(=O)c1cccc(F)c1`, the relative growth was inactive: 0.998.

For `C[C@@H]1CN([C@H](C)CO)C(=O)Cc2cc(NC(=O)NC3CCCCC3)ccc2O[C@@H]1CN(C)S(C)(=O)=O`, the relative growth is inactive: 0.981.

In the case of `CO[C@@H]1CN(C)C(=O)c2cc(NC(=O)c3cnccn3)ccc2OC[C@@H](C)N(C(=O)c2cnccn2)C[C@H]1C`, the relative growth was inactive: 1.

With `C[C@@H]1CN([C@H](C)CO)C(=O)Cc2cc(NC(=O)C3CCCCC3)ccc2O[C@H]1CN(C)Cc1ccc(Cl)c(Cl)c1`, the relative growth was inactive: 1.01.

For `CC(C)NC(=O)N(C)C[C@H]1OCCCC[C@@H](C)Oc2ccc(NS(=O)(=O)c3cn(C)cn3)cc2C(=O)N([C@H](C)CO)C[C@@H]1C`, the relative growth is inactive: 0.997.

Regarding `C=C(O)C(=O)OCC`, the relative growth is inactive: 1.

Consider `C[C@@H]1CN([C@@H](C)CO)C(=O)c2cc(-c3ccncc3)cnc2O[C@@H]1CN(C)S(=O)(=O)c1ccc(F)cc1`, for which the relative growth is inactive: 0.998.

In the case of `COc1ccc(OC)c(S(=O)(=O)N2[C@@H]3CC[C@@H](C3)[C@H]2c2nc3cccc(OCc4ccccc4)c3[nH]2)c1`, the relative growth was inactive: 1.01.

With `C[C@@H]1CN([C@@H](C)CO)C(=O)c2cc(NC(=O)Nc3ccc4c(c3)OCO4)ccc2O[C@@H](C)CCCCO[C@H]1CN(C)Cc1ccc(Cl)c(Cl)c1`, the relative growth was inactive: 1.02.

Take `C[C@@H]1CN([C@@H](C)CO)C(=O)c2ccccc2-c2ccccc2CO[C@@H]1CN(C)C(=O)N[C@H](C)c1ccccc1`: the relative growth is inactive: 0.986.

Regarding `C[C@@H]1CN([C@H](C)CO)C(=O)c2cccc(NC(=O)Nc3ccc(C(F)(F)F)cc3)c2O[C@H]1CN(C)Cc1ccc2c(c1)OCO2`, the relative growth is inactive: 0.761.

Take `Cn1cc(-c2ccno2)c(C(=O)O)n1`: the relative growth was inactive: 0.983.

Turning to `C[C@H]1CN([C@@H](C)CO)C(=O)c2cccc(NC(=O)C3CC3)c2O[C@@H]1CN(C)Cc1ccc(C(=O)O)cc1`, the relative growth was inactive: 0.996.

Regarding `C[C@@]1(c2cccs2)CC(c2cccs2)=Nc2ccccc2N1`, the relative growth is inactive: 1.03.

Regarding `Cc1ccc(S(=O)(=O)Nc2ccc3c(c2)C(=O)N([C@@H](C)CO)C[C@@H](C)[C@H](CN(C)C(=O)Nc2ccccc2)OCCCC[C@@H](C)O3)cc1`, the relative growth is inactive: 1.02.

With `O=C(C[C@@H]1CC=CC[C@@H](NC(=O)OCC2c3ccccc3-c3ccccc32)C(=O)OC[C@@H](Cc2ccccc2)NC1=O)N[C@@H](CO)Cc1ccccc1`, the relative growth was inactive: 1.01.

Consider `COCC(=O)Nc1ccc2c(c1)C(=O)N(C)[C@@H]1CC[C@H](CC(=O)NCc3ccccc3Cl)O[C@H]1CO2`, for which the relative growth was inactive: 0.997.

Consider `COc1ccc(NC(=O)N(C)C[C@H]2Oc3ccc(NC(=O)CCN4CCOCC4)cc3CC(=O)N([C@@H](C)CO)C[C@H]2C)cc1`, for which the relative growth was inactive: 1.01.

Regarding `COc1ccc(COC[C@]23N=C4SCc5ccccc5C(=O)N4[C@H](c4ccccc4O2)[C@H]3COC(=O)c2ccccc2)cc1`, the relative growth was inactive: 1.06.

For `C[C@@H]1CN([C@H](C)CO)C(=O)c2cc(NS(=O)(=O)c3cn(C)cn3)ccc2O[C@@H](C)CCCCO[C@@H]1CN(C)C`, the relative growth is inactive: 0.966.
